The full ranking holds about 33,000 sequences; the median of “E-score (dimensionless, -0.5 to 0.5)” is about -0.058, and the highest 2% start at about 0.35. This is one part of the list.
Each sequence was assayed on MvaT (assay: PBM 8-mer E-score (mean of HK and ME arrays) (E-score (dimensionless, -0.5 to 0.5)); higher = stronger relative binding preference; most listed sequences are background and not binding sites).
Summary of the method: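 Full-length P. aeruginosa MvaT, with glutathione S-transferase fused to its N-terminus (cloned into pTH6838 by isothermal assembly), was tested by protein binding microarray using a previously described protocol. Two universal double-stranded 60-mer arrays (ME and HK) were used, each with a constant 25-mer primer region and a variable 35-mer region covering all 8-mers. The rank-based 8-mer E-score (-0.5 to 0.5) is the mean of the two arrays, parsed with a custom Python script.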

First: GGGGGGAC
Second: CCGCTGAG
The “PBM 8-mer E-score” value of the first is lower: -0.279 for the first, -0.214 for the second.

Going from ACTTGGAC to AGACATAG, the “PBM 8-mer E-score” value falls from 0.0426 to 0.00833.

Compared with TCAATGAA, ATTGCGCC is lower in “PBM 8-mer E-score” value: 0.00438 for the first, -0.229 for the second.

Compared with AGCGGCTA, CAGTCAAG is higher in “PBM 8-mer E-score” value: -0.173 for the first, -0.06 for the second.

Going from GGATCCCA to GCACCTAC, the “PBM 8-mer E-score” value falls from -0.105 to -0.156.

First: TAGACCAA
Second: AGAACACA
The “PBM 8-mer E-score” value of the first is lower: 0.0302 for the first, 0.0376 for the second.

Compared with AGGTTAGC, CTATGTGA is higher in “PBM 8-mer E-score” value: -0.318 for the first, -0.00371 for the second.

First: CGAACATA
Second: CCAGCCAA
The “PBM 8-mer E-score” value of the first is higher: 0.0561 for the first, -0.118 for the second.

Going from AGCTCACT to CTTAACGA, the “PBM 8-mer E-score” value rises from -0.199 to -0.023.

Compared with CGTGTTGA, AGCTATCG is lower in “PBM 8-mer E-score” value: -0.144 for the first, -0.157 for the second.

First: AGTTCGTG
Second: CGTTGCTA
The “PBM 8-mer E-score” value of the first is lower: -0.0553 for the first, -0.019 for the second.

Compared with ACTACATG, ATTTCATA is higher in “PBM 8-mer E-score” value: 0.152 for the first, 0.25 for the second.

First: CGCGGCAA
Second: GTACTTGA
The “PBM 8-mer E-score” value of the first is lower: 0.00899 for the first, 0.1 for the second.

First: CCTCGTAG
Second: ACAAAGAG
The “PBM 8-mer E-score” value of the first is lower: -0.0333 for the first, -0.0186 for the second.

Compared with CAGTCGGC, CGGATACG is higher in “PBM 8-mer E-score” value: -0.196 for the first, -0.136 for the second.

Going from ATCTACGG to GTCAGGCA, the “PBM 8-mer E-score” value rises from -0.115 to -0.0612.

Compared with CCCCAGTA, GTCTTAAC is higher in “PBM 8-mer E-score” value: -0.117 for the first, -0.0766 for the second.

Going from CAATTTAC to CCGGGAGA, the “PBM 8-mer E-score” value falls from 0.248 to -0.0673.

Compared with CCAAGAGC, ATAGGCTC is higher in “PBM 8-mer E-score” value: -0.245 for the first, -0.0589 for the second.

Compared with CCGAAACG, CGTAGTGC is higher in “PBM 8-mer E-score” value: -0.204 for the first, -0.0989 for the second.

Compared with CCGTGGTC, GGAAGCCA is lower in “PBM 8-mer E-score” value: -0.0848 for the first, -0.171 for the second.

Compared with CCGCACCA, CCGAGCAA is higher in “PBM 8-mer E-score” value: -0.157 for the first, -0.0238 for the second.

Compared with CAGATAGA, GATATGCC is higher in “PBM 8-mer E-score” value: -0.0253 for the first, -0.00116 for the second.

Going from CGAGAACA to GCTGTTTA, the “PBM 8-mer E-score” value rises from 0.0484 to 0.126.

Going from GATCCACA to AAATTCCG, the “PBM 8-mer E-score” value rises from 0.0197 to 0.108.

Going from TGCCGGAA to CCTCTCCA, the “PBM 8-mer E-score” value falls from -0.154 to -0.226.

Going from CAGAATGC to AGCCGGTC, the “PBM 8-mer E-score” value falls from -0.132 to -0.159.

First: GACGACTA
Second: ACACTATC
The “PBM 8-mer E-score” value of the first is lower: -0.0594 for the first, 0.122 for the second.

Going from TCACACCA to CATAATTC, the “PBM 8-mer E-score” value rises from -0.0842 to 0.223.

Going from ACGAGTCA to AAATGTAC, the “PBM 8-mer E-score” value rises from -0.233 to 0.14.

First: CGTCTTCA
Second: ACGGGTGA
The “PBM 8-mer E-score” value of the first is lower: -0.038 for the first, -0.00679 for the second.

First: GCCCACGC
Second: TAAACTAA
The “PBM 8-mer E-score” value of the first is lower: -0.276 for the first, 0.34 for the second.

First: CGAAGAAA
Second: AGTGATCC
The “PBM 8-mer E-score” value of the first is higher: 0.176 for the first, -0.21 for the second.

First: CGTTCCAG
Second: TACAGAGA
The “PBM 8-mer E-score” value of the first is lower: -0.203 for the first, 0.0639 for the second.

First: AATGCCCA
Second: GCAACTGC
The “PBM 8-mer E-score” value of the first is higher: 0.0229 for the first, -0.142 for the second.

First: CCAGAGAA
Second: ACTTGGGG
The “PBM 8-mer E-score” value of the first is higher: 0.0167 for the first, -0.109 for the second.

Compared with CAAAAAAC, GACAAACC is lower in “PBM 8-mer E-score” value: 0.216 for the first, 0.176 for the second.

Going from ACAATAAG to ATCTCGGC, the “PBM 8-mer E-score” value falls from 0.276 to -0.0787.

First: GCCCATTA
Second: ACAGTTCC
The “PBM 8-mer E-score” value of the first is higher: -0.0164 for the first, -0.0657 for the second.

First: AATGTACG
Second: AAGACAAT
The “PBM 8-mer E-score” value of the first is lower: 0.125 for the first, 0.209 for the second.

Going from CCTTCTAC to AGTATAGA, the “PBM 8-mer E-score” value rises from -0.13 to 0.0904.

Going from CGCGGCCG to GTGCTTCA, the “PBM 8-mer E-score” value rises from -0.113 to -0.0014.

Going from ACGCCCCA to CTTCTTGC, the “PBM 8-mer E-score” value rises from -0.193 to -0.121.

Going from CGGCGGAC to GGGAAGCA, the “PBM 8-mer E-score” value rises from -0.209 to -0.128.

Compared with CGCCAGCC, ACACTGGC is higher in “PBM 8-mer E-score” value: -0.184 for the first, -0.145 for the second.

Compared with ATCAATCG, AGGCACCC is lower in “PBM 8-mer E-score” value: -0.0693 for the first, -0.204 for the second.

Going from CCGGGCAC to CAGCAACA, the “PBM 8-mer E-score” value rises from -0.137 to 0.137.

Compared with CGATGGTC, CATAATGA is higher in “PBM 8-mer E-score” value: -0.364 for the first, 0.233 for the second.

Compared with GGGCCCGA, ATTCGGAG is higher in “PBM 8-mer E-score” value: -0.201 for the first, -0.0203 for the second.

Compared with CCTTGTAG, ATCGACTG is higher in “PBM 8-mer E-score” value: -0.168 for the first, -0.11 for the second.

Going from TATTTACA to CTCCCCCC, the “PBM 8-mer E-score” value falls from 0.374 to -0.333.

First: AGCTCTTC
Second: GAAGTCAC
The “PBM 8-mer E-score” value of the first is lower: -0.208 for the first, -0.139 for the second.

First: CTCTCAAG
Second: ATTGTGCA
The “PBM 8-mer E-score” value of the first is lower: -0.193 for the first, 0.169 for the second.

Compared with CGGGAGCC, CCTGTCCG is higher in “PBM 8-mer E-score” value: -0.233 for the first, -0.203 for the second.

With ACCCAAAG the “PBM 8-mer E-score” value was -0.101.
